From PubChem BioAssay AID1963576 (National Center for Advancing Translational Sciences (NCATS), 2024)
Among all 46,000 compounds or so, about 60 (0.1%) were called active. Inconclusive results (about 3%) are left out. Calls follow the shape of the dose curve; as a rule, active = well fitted inhibition curve with a large enough effect; inconclusive = small, poorly fitted or top-dose-only effect; inactive = no such curve, though single readings can be large or run the other way. Some of the results follow.

experiment: Primary qHTS assay for Inhibitors of ovarian cancer metastasis using an organotypic tumor microenvironment (TME) model.; also: nearly all actives have a fitted effect of over 65% in size;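 as to activity change, negative = inhibition: plate controls were DMSO wells for no effect and tomatine positive control wells for full effect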; conditions: SKOV3ip1-GFP adhesion/invasion on 3D omental model, fluorescence; series mostly up to 45.8 µM; activity change, negative = inhibition: at the top concentration
Summary of the method: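 A 3D layer of primary human omental fibroblasts, mesothelial cells, fibronectin and collagen I, grown 48 hr, received SKOV3ip1-GFP cells in serum-free medium plus compounds at 0.36-46 umol/L. After 2 hr RT and 16 hr 37 C, fixed adherent GFP cells were counted; normalized to DMSO and tomatine.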

Activity change, negative = inhibition, inactive:
CNC(=O)c1c(NC(=O)Cc2coc3ccc(C)cc23)sc2c1CCCC2 -4.45%, COc1ccc(-c2noc(-c3ccc(NCC4CCCO4)c([N+](=O)[O-])c3)n2)cc1 (stereo unspecified) 18.9%, O=C(CSc1nc2c([nH]c3ccccc32)c(=O)n1-c1ccccc1)Nc1ccc(Cl)c(Cl)c1 5.02%, CCc1nn(CC(=O)Nc2c(C)cccc2C)c(=O)c2cc3sccc3n12 1.57%, COc1ccc(-c2cc(OC(=O)c3cccc(Cl)c3)c3c(C)oc(C)c3c(=O)c2)cc1 -6.61%, COc1cc(NC(=O)N2CCC3(CC2)Nc2ccccc2-n2cccc23)cc(OC)c1OC 4.52%, CCOc1ccc(NC(=O)Cn2nnc(C(=O)NCCc3ccccc3)c2N)cc1 4.61%, Cc1cn2c(=O)c(S(=O)(=O)N3CCN(c4cc(Cl)ccc4C)CC3)c(C)nc2s1 9.1%, O=C(NCCc1ccc(Cl)cc1)C1COc2ccccc2C1 (stereo unspecified) -3.57%, Cc1nc(-c2ccc(S(=O)(=O)N3CCN(c4cc(Cl)ccc4C)CC3)cc2)co1 -2.99%, O=C(c1ccc(F)cc1)n1nc(-c2cccnc2)nc1NCc1ccc(F)cc1 9.76%, Cc1ccc2nc(-c3cccnc3)c(Nc3ccc(C(C)C)cc3)n2c1 -1.66%, O=C(COc1ccc2ccccc2c1)NC1CC(=O)N(c2ccccc2)C1 (stereo unspecified) -0.582%, Cc1ccc(S(=O)(=O)Nc2nc3ccccc3nc2Nc2ccc3nsnc3c2)cc1 -10.3% [at 23.2 µM], O=C(CSc1c2c(nc3cc(Cl)ccc13)CCCC2)N1CCN(c2ccccc2F)CC1 -28.1%, CCOC(=O)c1noc2ncn(CC(=O)Nc3cccc(Cl)c3)c(=O)c12 12.5%, COc1ccccc1NC(=O)CSc1oc(-c2ccccc2)nc1S(=O)(=O)c1ccc(C)cc1 -0.775%, COc1ccc2c(Sc3ccc(Cl)cc3)c(C(=O)N3CCC(C)CC3)[nH]c2c1 -16.4%, CCNC(=O)CC1C(=O)N(c2ccc(C)cc2)C(=O)N1CCC(C)C (stereo unspecified) 0.627%, O=C(Cn1c(=O)oc2cc(S(=O)(=O)N3CCCC3)ccc21)Nc1ccc(F)cc1F -19.5%, Cc1ccc(S(=O)(=O)c2nc(-c3cccs3)oc2SC(C)C)cc1 2.46%, CCOC(=O)c1ccc(NC(=O)c2cn(-c3ccccc3)nc2-c2ccc(OC)c(OC)c2)cc1 4.39%, O=C(Nc1cccc(-c2nc3cccnc3s2)c1)c1cccc(Br)c1 -18.4%, CCOC(=O)C1=C(N)Oc2ccc(Br)cc2C1C(C#N)C(=O)OCC (stereo unspecified) -12.1%, CCOC(=O)c1nc(Nc2ccc(C(=O)OC)cc2)c2ccccc2n1 -4.43%, O=C(c1cccc(Cl)c1)n1nc(-c2cccnc2)nc1NCc1ccccc1 -3.27%, CCCCOc1cccc(NC(=O)c2cccc(C(=O)Nc3cccc(OCCCC)c3)c2)c1 -14.4%, CCOC(=O)c1c(C)oc2nc(C)nc(NCc3cccc(Cl)c3)c12 0.162%, Cc1ccc(C(=O)Nc2nc(-c3nnn(-c4cccc(C(F)(F)F)c4)c3C)ns2)cc1 -8.63%, CCc1ccc(-n2c(=O)c3cccnc3n2CC(=O)Nc2cc(OC)ccc2OC)cc1 -2.64%, CSCCC(NS(=O)(=O)c1ccc2c(c1)oc(=O)n2C)C(=O)N1CCN(c2ccc(C(C)=O)cc2)CC1 (stereo unspecified) 1.97%, O=c1c(S(=O)(=O)c2cccc(Cl)c2)cn(Cc2ccccc2)c2cc(N3CCCCC3)c(F)cc12 -10.2%, CCN(CC)S(=O)(=O)c1ccc2[nH]cc(C(=O)NCCc3ccccc3)c(=O)c2c1 -10.7%, CCOC(=O)c1c(S(=O)(=O)NCC(=O)Nc2ccc(F)cc2C)c(C)n(C)c1C 4.8%, Cc1ccc(CCNC(=O)c2cn(C)c3ccc(S(=O)(=O)N4CCC(C)CC4)cc3c2=O)cc1 -10.8%, CCOc1ccc(-n2c(=O)c3c(C)c(C)sc3n(CC(=O)N3CCC(C)CC3)c2=O)cc1 -2.45%, Cc1cccc(CNC(=O)c2ccc(C)c(-n3c(C)nc4cccnc43)c2)c1 4.5%, O=C(NCc1ccccc1Cl)c1ccc(Cn2c(=O)c3cccn3c3cccnc32)cc1 -6.18%, COc1cccc(-n2cc(C(=O)OCc3ccc(Cl)cc3)c3ccccc3c2=O)c1 -6.53%, COc1cc(OC)c(NC(=O)c2c(C)oc3nc(C)nc(N4CCOCC4)c23)cc1Cl -14.3%, CCn1ccc2cc(S(=O)(=O)N3CCC(C(=O)NCCc4ccccc4)CC3)ccc21 0.17%, CC(=O)C1=C(c2ccc(Br)cc2)N(C(C)=O)n2c(nnc2C2CCCCC2)S1 8.25%, Cc1ccc2scc(N3CCCCC3)c(=O)c2c1 4.12%, CCOC(=O)c1cc(-c2ccccc2)n(CCC(=O)Nc2cc(C)cc(C)c2)c1C -1.39%, COc1ccc(NC(=O)CC2C(=O)N(c3ccc(F)cc3)C(=O)N2CCc2sccc2C)cc1 (stereo unspecified) 1.02%, Nc1ccc2nc(-c3ccc(O)cc3)sc2c1 0.439%, CC(C)C(=O)Nc1ncc(-c2cc(C(F)F)nn2-c2c(Cl)cccc2Cl)s1 -24.3%, CC(=O)N1CCC2(CC1)OC(=O)C(C)=C2C(=O)NCc1cccc(Cl)c1 5.12%

outcome, inactive:
N#Cc1ccccc1NC(=O)C(=O)NCCc1csc(-c2ccc(F)cc2)n1, CCc1ccccc1NC(=O)c1ccc(=O)n(Cc2ccc(F)cc2)c1, COc1cccc(C(=O)NCC(=O)OCc2cc(=O)n3ccsc3n2)c1, COc1ccccc1NC(=O)CN1C(=O)CSc2ccc(S(=O)(=O)N3CCCC3)cc21, COc1cc(OC)cc(-c2nc3nc(C)c(CCC(=O)NCCC(C)C)c(C)n3n2)c1, Cc1cc(C)c(NC(=O)CCCn2c(C)c3cnn(-c4ccccc4)c(=O)c3c2C)c(C)c1, CC(C)CC(=O)Nc1nnc(SCc2cc(=O)n3ccccc3n2)s1, O=C(Cn1c(=O)oc2cc(S(=O)(=O)NCc3ccccc3)ccc21)NCc1ccccc1Cl, COCCCNC(=O)c1cnn(-c2ccc(F)cc2F)c1C1CCNCC1, Cc1ccc2nc(NC(=O)c3nc(SCc4ccccc4C)ncc3Cl)sc2c1, Cc1ccc(N2CCN(C(=O)C3CCN(c4ncnc5c4nc4n5CCCCC4)CC3)CC2)c(C)c1, CN(Cc1ccccc1)C(=O)C1CCC(CNS(=O)(=O)c2ccc3c(c2)CCCC(=O)N3)CC1 (stereo unspecified), CCc1nn(CC(=O)NCCCc2ccccc2)c(=O)c2cc3c(OC)cccc3n12
